Source: the antibiotic and cytotoxicity screens of Wong et al. (2023)
This is one part of the list.

Assays:
[1] = tested on: HSkMC (human skeletal muscle cells); assay: cytotoxicity call (relative viability < 0.9); settings: 10 µM
[2] = tested on: HepG2; assay: cytotoxicity call (relative viability < 0.9); settings: 10 µM
[3] = tested on: S. aureus RN4220; assay: growth inhibition call (relative growth <= 0.2); settings: 50 µM

Row | Structure (SMILES) | cytotoxicity call [1] | cytotoxicity call [2] | growth inhibition call [3]
1 | CC(C)NC(=O)Nc1ccc2c(c1)C(=O)N([C@@H](C)CO)C[C@@H](C)[C@H](CN(C)S(=O)(=O)c1ccccc1)O2 | inactive | inactive | inactive
2 | C[C@@H]1CCCCO[C@H](CN(C)C(=O)CCC(F)(F)F)[C@@H](C)CN([C@@H](C)CO)C(=O)c2cc(NC(=O)c3ccccc3)ccc2O1 | inactive | inactive | inactive
3 | CO[C@H](CN(C)S(=O)(=O)c1ccc(F)cc1)[C@@H](C)CN([C@H](C)CO)S(=O)(=O)c1cccc(Cl)c1 | inactive | inactive | inactive
4 | O=S(=O)(NCC[C@H]1CC[C@@H](NS(=O)(=O)c2cccc(Cl)c2)[C@H](CO)O1)c1cccc(F)c1 | inactive | inactive | inactive
5 | CC(C)NC(=O)Nc1ccc2c(c1)CC(=O)N([C@@H](C)CO)C[C@H](C)[C@@H](CN(C)C(=O)Nc1ccc3c(c1)OCO3)O2 | inactive | inactive | inactive
6 | C[C@@H]1CN([C@@H](C)CO)C(=O)Cc2cc(NS(=O)(=O)c3ccc(F)cc3)ccc2O[C@@H]1CN(C)S(C)(=O)=O | inactive | inactive | inactive
7 | C[C@@H]1CN([C@H](C)CO)C(=O)c2cc(NC(=O)Nc3ccc(F)cc3)ccc2O[C@@H](C)CCCCO[C@H]1CN(C)Cc1ccncc1 | inactive | inactive | inactive
8 | CC(C)NC(=O)Nc1cccc2c1O[C@H](CN(C)Cc1ccc(-c3ccccc3)cc1)[C@@H](C)CN([C@@H](C)CO)C2=O | inactive | active | inactive
9 | C[C@@H]1CCCCO[C@@H](CN(C)S(=O)(=O)c2cccs2)[C@H](C)CN([C@H](C)CO)C(=O)c2cc(NC(=O)Nc3ccccc3)ccc2O1 | inactive | active | inactive
10 | C[C@H]1CN([C@@H](C)CO)C(=O)c2cc(/C=C/c3ccccc3)cnc2O[C@H]1CN(C)C(=O)Nc1ccc(C(F)(F)F)cc1 | inactive | inactive | inactive
11 | CCS(=O)(=O)Nc1ccc2c(c1)C(=O)N(C)C[C@@H](OC)[C@@H](C)CN(C(=O)c1ccc3c(c1)OCO3)[C@@H](C)CO2 | inactive | inactive | inactive
12 | C[C@@H]1CCCCO[C@@H](CN(C)CC2CCCCC2)[C@H](C)CN([C@H](C)CO)C(=O)c2cc(NS(=O)(=O)c3ccc(Cl)cc3)ccc2O1 | inactive | active | inactive
13 | CC(C)NC(=O)Nc1ccc2c(c1)C(=O)N([C@@H](C)CO)C[C@@H](C)[C@@H](CN(C)Cc1ccccc1)OCCCC[C@H](C)O2 | inactive | inactive | inactive
14 | CCCC#Cc1cnc2c(c1)C(=O)N([C@@H](C)CO)C[C@@H](C)[C@@H](CN(C)C(=O)c1ccc3c(c1)OCO3)O2 | inactive | inactive | inactive
15 | C[C@H]1CN([C@@H](C)CO)C(=O)c2cc(NS(=O)(=O)c3cn(C)cn3)ccc2O[C@@H]1CN(C)Cc1ccncc1 | inactive | inactive | inactive
16 | COc1ccc2c3c(n(c2c1)C)[C@H](CO)N(CC1CCOCC1)C[C@]13CN(C1)C(=O)c1cccc(c1)F | inactive | inactive | inactive
17 | Cc1noc(C)c1NC(=O)N(C)C[C@H]1Oc2ccc(NC(=O)CCN3CCOCC3)cc2C(=O)N([C@@H](C)CO)C[C@@H]1C | inactive | inactive | inactive
18 | COC(=O)c1c(C)cc(OC)cc1O | inactive | inactive | inactive
19 | C[C@H](C(=O)N(C)C[C@@H]1OCc2ccccc2-c2c(n(C)c3ccccc23)C(=O)N([C@H](C)CO)C[C@@H]1C)c1ccccc1 | inactive | inactive | inactive
20 | Cc1oncc1C(=O)Nc1ccc(C(F)(F)F)cc1 | inactive | inactive | inactive
21 | CN(C)c1ccnc(CNS(C)(=O)=O)n1 | inactive | inactive | inactive
22 | CCCCC[C@@H](C[C@@H](CC(=O)O)O[C@H]1O[C@@H](CO)[C@@H](O)[C@@H](O)[C@@H]1O)OC(=O)C[C@H](O)C[C@H](CCCCC)O[C@H]1O[C@@H](CO)[C@@H](O)[C@@H](O)[C@@H]1O | inactive | inactive | inactive
23 | CO[C@H]1CN(C)C(=O)c2ccc(NC(=O)C3CC3)cc2OC[C@@H](C)N(C(=O)Cc2ccccn2)C[C@@H]1C | inactive | inactive | inactive
24 | O=C(C[C@@H]1CC[C@H]2[C@@H](COC[C@@H](O)CN2S(=O)(=O)c2ccccc2)O1)N1CCOCC1 | inactive | inactive | inactive
25 | C[C@H](O)C#Cc1cnc2c(c1)C(=O)N([C@@H](C)CO)C[C@H](C)[C@H](CN(C)Cc1cncnc1)O2 | inactive | inactive | inactive
26 | O=C(Nc1cc(C(=O)Nc2ccc(S(=O)(=O)O)cc2S(=O)(=O)O)cc(C(=O)Nc2ccc(S(=O)(=O)O)cc2S(=O)(=O)O)c1)Nc1cc(C(=O)Nc2ccc(S(=O)(=O)O)cc2S(=O)(=O)O)cc(C(=O)Nc2ccc(S(=O)(=O)O)cc2S(=O)(=O)O)c1 | inactive | inactive | inactive

Row | Structure (SMILES) | cytotoxicity call [1] | cytotoxicity call [2] | growth inhibition call [3]
27 | Cc1cc(C(=O)Nc2cccc3c2O[C@@H](CN(C)C(=O)NC(C)C)[C@@H](C)CN([C@H](C)CO)C3=O)n(C)n1 | inactive | inactive | inactive
28 | COc1ccc(NC(=O)N(C)C[C@@H]2Oc3ccc(NC(=O)CCCCCC(=O)Nc4ccccc4N)cc3CC(=O)N([C@H](C)CO)C[C@H]2C)cc1 | inactive | inactive | inactive
29 | CN(Cc1ccc(/C=C/C(=O)Nc2ccc(-c3ccccc3)cc2N)cc1)CC12CC3CC(CC(C3)C1)C2 | active | active | inactive
30 | C[C@@H]1CCCCO[C@@H](CN(C)C(=O)Nc2ccccc2)[C@H](C)CN([C@@H](C)CO)C(=O)c2cc(NC(=O)c3ccccc3)ccc2O1 | inactive | inactive | inactive
31 | CCCC#Cc1ccc2c(c1)O[C@H](CN(C)S(=O)(=O)c1cccc(OC)c1)[C@@H](C)CN([C@@H](C)CO)S2(=O)=O | inactive | inactive | inactive
32 | C[C@H]1CN([C@@H](C)CO)S(=O)(=O)c2ccc(-c3cncnc3)cc2O[C@@H]1CN(C)C(=O)C1CCCCC1 | inactive | inactive | inactive
33 | COC(=O)CSc1cc(C)nc(N)n1 | inactive | inactive | inactive
34 | Cc1noc(C)c1NC(=O)Nc1ccc2c(c1)C(=O)N([C@@H](C)CO)C[C@H](C)[C@@H](CN(C)Cc1ccc(-c3ccccc3)cc1)O2 | inactive | inactive | inactive
35 | COc1ccc(CN(C)C[C@H]2OCCCC[C@@H](C)Oc3ccc(NC(=O)c4ccccc4)cc3C(=O)N([C@@H](C)CO)C[C@H]2C)cc1 | inactive | inactive | inactive
36 | Cc1[nH]c(=O)[nH]c(=O)c1/C=C/C(=O)O | inactive | inactive | inactive
37 | COc1ccc(S(=O)(=O)Nc2ccc3c(c2)C(=O)N([C@@H](C)CO)C[C@@H](C)[C@H](CN(C)C(=O)Nc2ccc4c(c2)OCO4)OCCCC[C@@H](C)O3)cc1 | inactive | inactive | inactive
38 | C[C@H](CO)N1C[C@H](C)[C@H](CN(C)C(=O)NC2CCCCC2)OCCCC[C@H](C)Oc2ccc(NS(=O)(=O)c3ccc(F)cc3)cc2C1=O | inactive | inactive | inactive
39 | C[C@H]1CN([C@@H](C)CO)C(=O)c2cc(NC(=O)Cc3cn(C)c4ccccc34)ccc2O[C@@H]1CN(C)Cc1ccc(C(F)(F)F)cc1 | inactive | inactive | inactive
40 | O=C(C[C@@H]1C=C[C@@H](NS(=O)(=O)c2ccc(F)cc2)[C@H](CO)O1)NCc1ccc(Cl)c(Cl)c1 | inactive | inactive | inactive
41 | C[C@H]1CN([C@@H](C)CO)C(=O)CCCn2nncc2CO[C@H]1CN(C)S(=O)(=O)c1ccccc1C#N | inactive | inactive | inactive
42 | C[C@@H]1CCCCO[C@@H](CN(C)C(=O)Nc2ccc3c(c2)OCO3)[C@@H](C)CN([C@H](C)CO)C(=O)c2cc(NS(=O)(=O)c3ccc(Cl)cc3)ccc2O1 | inactive | inactive | inactive
43 | C[C@H]1CN([C@@H](C)CO)C(=O)c2cc(NC(=O)Nc3ccc(C(F)(F)F)cc3)ccc2O[C@H]1CN(C)S(C)(=O)=O | inactive | inactive | inactive
44 | Cc1ccc(S(=O)(=O)Nc2ccc3c(c2)C(=O)N([C@H](C)CO)C[C@H](C)[C@H](CN(C)C(=O)Nc2c(C)noc2C)OCCCC[C@H](C)O3)cc1 | inactive | inactive | inactive
45 | C[C@H](CO)N1C[C@H](C)[C@@H](CN(C)S(=O)(=O)c2ccc(Cl)cc2)Oc2ccc(NC(=O)CCN3CCOCC3)cc2C1=O | inactive | inactive | inactive
46 | C[C@@H]1CN([C@H](C)CO)C(=O)Cc2cc(NC(=O)Nc3ccc(C(F)(F)F)cc3)ccc2O[C@@H]1CN(C)C(=O)Nc1ccc(C(F)(F)F)cc1 | active | active | inactive
47 | CNC[C@@H]1OCCCC[C@H](C)Oc2ccc(NC(=O)Nc3ccc(C(F)(F)F)cc3)cc2C(=O)N([C@@H](C)CO)C[C@H]1C | inactive | inactive | inactive
48 | C[C@@H]1CN([C@@H](C)CO)C(=O)c2cc(NC(=O)Nc3ccc4c(c3)OCO4)ccc2O[C@@H]1CN(C)S(C)(=O)=O | inactive | inactive | inactive
49 | CO[C@H]1CN(C)C(=O)c2cc(NC(=O)CC(F)(F)F)ccc2OC[C@H](C)N(S(=O)(=O)c2cn(C)cn2)C[C@@H]1C | inactive | inactive | inactive
50 | COc1ccc2c3c([nH]c2c1)[C@H](CO)N(C[C@]13CN(C)C1)C(=O)CN1CCOCC1 | inactive | inactive | inactive
51 | C[C@@H]1CN([C@H](C)CO)C(=O)Cc2cc(NS(=O)(=O)c3ccc(F)cc3)ccc2O[C@H]1CN(C)Cc1ccc(-c2ccccc2)cc1 | active | active | inactive
52 | CO[C@@H](CN(C)S(=O)(=O)c1cccc(Cl)c1)[C@H](C)CN([C@@H](C)CO)S(=O)(=O)c1cccc(Cl)c1 | inactive | inactive | inactive
